Several values for one entry are separate records, joined by “and”; a condition that tells them apart may be missing. Identical values can stand only once. About 5,800 (2.1%) of roughly 270,000 compounds were called active. Inconclusive results, whose numbers are uncertain, are shown with a selection of clear calls. The call rests on the fitted dose curve; in most records, active means well fitted inhibition curve with a large enough effect; inconclusive means small, poorly fitted or top-dose-only effect; inactive means flat fitted curve, though single readings scatter. A potency beside an inconclusive call is a rough fit, not a confirmed value.
Each molecule was assayed against Microtubule-associated protein tau (Homo sapiens) (UniProt P10636) (assay: qHTS for Inhibitors of Tau Fibril Formation, Thioflavin T Binding). Details: recombinant tau K18 P301L (four-repeat tau fragment), heparin-induced fibrillization, ThT fluorescence; series mostly up to 57.4 µM.
Sequence of UniProt P10636 (P10636 whole entry, looked up, the tested form may be a part): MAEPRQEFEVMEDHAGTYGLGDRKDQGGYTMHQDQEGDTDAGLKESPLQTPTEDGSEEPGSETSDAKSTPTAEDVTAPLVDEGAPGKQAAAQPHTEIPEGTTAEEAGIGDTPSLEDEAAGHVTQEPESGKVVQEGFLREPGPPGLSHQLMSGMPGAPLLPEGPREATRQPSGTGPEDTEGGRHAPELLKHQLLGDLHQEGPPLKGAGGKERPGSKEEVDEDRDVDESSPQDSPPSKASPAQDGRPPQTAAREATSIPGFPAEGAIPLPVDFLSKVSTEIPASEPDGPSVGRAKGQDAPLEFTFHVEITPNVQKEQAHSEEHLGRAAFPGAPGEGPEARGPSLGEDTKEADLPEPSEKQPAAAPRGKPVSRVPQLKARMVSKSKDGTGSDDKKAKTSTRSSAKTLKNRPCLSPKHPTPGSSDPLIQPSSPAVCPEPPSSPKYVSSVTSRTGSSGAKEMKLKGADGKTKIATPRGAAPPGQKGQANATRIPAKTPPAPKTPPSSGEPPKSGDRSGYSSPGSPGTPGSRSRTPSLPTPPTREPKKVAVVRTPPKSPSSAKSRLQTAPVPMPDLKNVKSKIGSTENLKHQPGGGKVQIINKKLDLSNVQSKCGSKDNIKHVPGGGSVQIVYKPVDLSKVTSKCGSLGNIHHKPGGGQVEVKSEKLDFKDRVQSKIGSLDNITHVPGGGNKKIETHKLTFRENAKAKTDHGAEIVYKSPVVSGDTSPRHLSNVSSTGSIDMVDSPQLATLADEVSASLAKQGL
Procedure, shortened: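 Heparin-induced fibrillization of the P301L-mutant K18 repeat-domain fragment of human tau was followed by ThT binding in quantitative high-throughput format.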
COP(=O)(OC)c1nc(-c2cccc3ccccc23)oc1NCCc1ccccc1 was tested, and the Potency was inconclusive: 39.8 µM [inhibitor, single point]. For CCCN1CCC[C@@H]2Cc3cn[nH]c3C[C@H]21, the Potency was “inactive”. With O=C1NC(=O)C(=Cc2ccc(Sc3ccccc3)o2)C(=O)N1 the Potency was inconclusive: 11.2 µM [inhibitor, partial curve]. In the case of CC(C)[C@@]1(NC(=O)[C@@H]2C[C@@H]3c4cccc5[nH]cc(c45)C[C@H]3N(C)C2)O[C@@]2(O)C3CCCN3C(=O)[C@H](Cc3ccccc3)N2C1=O (some centres undefined), the Potency is reported as inconclusive: 20 µM [inhibitor, single point]. With CSc1ncc(/C=C2/C(=O)NC(=O)N(C3CCCCC3)C2=O)cn1 the Potency was inconclusive: 6.31 µM [inhibitor, partial curve]. COc1cc(C=C(C#N)C#N)cc(O)c1O was tested, and the Potency was inconclusive: 15.8 µM [inhibitor, partial curve]. For C[C@]12CC[C@@H]3[C@@H](CCC4=CC(=O)CC[C@@H]43)[C@@H]1CC[C@@H]2OC(=O)CCc1ccccc1, the Potency was inconclusive: 28.2 µM [inhibitor, partial curve]. For CCN1C(=O)/C(=C/c2ccc(N(CC)CC)cc2OC)C(=O)NC1=S, the Potency was inconclusive: 17.8 µM [inhibitor, partial curve]. CN1C(=O)C(=CN2CCN(C(=O)c3ccco3)CC2)C(=O)N(C)C1=S was tested, and the Potency was inconclusive: 10 µM [inhibitor, partial curve]. Cl.Cl.Cl.Cl.Cl.Cl.N.N.N.N.NNNNN.NNNNN.O.O.[Ru].[Ru].[Ru] was tested, and the Potency was active: 22.4 µM. Cc1ccc(OCC(=O)N/N=C\c2ccc(O)c([N+](=O)[O-])c2)c([N+](=O)[O-])c1 was tested, and the Potency was active: 12.6 µM. For COc1cc(Cn2c(N)c(C(=O)NCc3ccco3)c3nc4ccccc4nc32)cc(OC)c1OC, the Potency was inconclusive: 17.8 µM [inhibitor, partial curve]. With O=C1NC(=O)C(=Cc2ccc(N3CCN(C(=O)c4ccccc4)CC3)c([N+](=O)[O-])c2)C(=O)N1 the Potency was active: 11.2 µM. In the case of C=CCn1c(O)c(C(C)=Nc2cccc(C(=O)O)c2)c(=O)[nH]c1=O, the Potency is reported as “inactive”. In the case of C=CCN1CCc2cccc3c2C1Cc1ccc(O)c(O)c1-3 (centres undefined), the Potency is reported as active: 15.8 µM and active: 14.1 µM. In the case of CC[C@@H](CO)NC(=O)[C@H]1C=C2c3cccc4[nH]cc(c34)C[C@H]2N(C)C1, the Potency is reported as inconclusive: 31.6 µM [inhibitor, partial curve]. With CCN(CC)c1ccc(NC(=O)c2cccc(C)c2)cc1S(=O)(=O)Nc1ccccc1OC the Potency was inconclusive: 39.8 µM [inhibitor, single point]. O=C1CCCC2C3CC(CN12)C1CCCCN1C3 (centres undefined) was tested, and the Potency was “inactive”. CCCCCCCCCCCCCC(=O)O[C@@H]1[C@@H](C)[C@@]2(O)[C@@H](C=C(CO)C[C@]3(O)C(=O)C(C)=C[C@@H]23)[C@@H]2C(C)(C)[C@]12OC(C)=O was tested, and the Potency was inconclusive: 20 µM [inhibitor, partial curve]. For CC(=O)Nc1nc(CCl)cs1, the Potency was “inactive”. In the case of Cc1cc(/C=C2\C(=O)NC(=O)N(C)C2=O)c(C)n1-c1ccc2c(c1)OCO2, the Potency is reported as inconclusive: 11.2 µM [inhibitor, partial curve]. In the case of COc1cc(CC2(CCc3ccncc3)C(=O)NC(=O)NC2=O)cc(OC)c1OC, the Potency is reported as “inactive”. In the case of CCCCCCn1c(O)c(C=NCCN2CCOCC2)c(=O)[nH]c1=O, the Potency is reported as “inactive”. Cc1ncc(CN2CC=C(c3ccccc3)CC2)c(N)n1 was tested, and the Potency was “inactive”. With CCOc1ccc(NC(=O)C2C(C(=O)O)C3(Cl)C(Cl)=C(Cl)C2(Cl)C3(Cl)Cl)cc1 (centres undefined) the Potency was inconclusive: 31.6 µM [inhibitor, partial curve]. For CCC(C)n1c(O)c(C(c2ccccn2)c2c(O)n(C(C)CC)c(=S)[nH]c2=O)c(=O)[nH]c1=S (centres undefined), the Potency was inconclusive: 17.8 µM [inhibitor, partial curve]. For CN1C(=O)C(=Cc2cccnc2)C(=O)N(C)C1=O, the Potency was inconclusive: 3.55 µM [inhibitor, partial curve]. For CC(C)CC(=O)NC(Oc1ccc(Cl)cc1)C(Cl)(Cl)Cl (centres undefined), the Potency was “inactive”. With CC(C)CCNC(=O)c1c(N)n(CC2CCCO2)c2nc3ccccc3nc12 (centres undefined) the Potency was inconclusive: 25.1 µM [inhibitor, partial curve]. With O=C(NC1C(=O)NNC1c1ccc(Cl)cc1)c1ccc(F)cc1 (centres undefined) the Potency was inconclusive: 17.8 µM [inhibitor, partial curve, poor fit]. In the case of COC(=O)[C@@H]1C[C@H](OC(C)=O)C(=O)[C@H]2[C@@]1(C)CC[C@H]1C(=O)O[C@H](c3ccoc3)C[C@]21C, the Potency is reported as “inactive”. In the case of NCC(O)c1cc(O)c(O)cc1F (centres undefined), the Potency is reported as active: 11.2 µM. COc1cccc(-c2nnc3n(Cc4ccccc4Cl)c(=O)c4ccccc4n23)c1O was tested, and the Potency was inconclusive: 39.8 µM [inhibitor, single point]. For CCn1c(O)c(N=Nc2ccc(S(=O)(=O)N3CCOCC3)cc2)c(=O)n(CC)c1=S, the Potency was active: 8.91 µM. In the case of Cc1nccn1-c1c([N+](=O)[O-])c(=O)n(C)c2ccccc12, the Potency is reported as inconclusive: 12.6 µM [inhibitor, partial curve]. For c1ccc2c(c1)OC[C@@H](C1=NCCN1)O2, the Potency was inconclusive: 20 µM [inhibitor, partial curve]. In the case of NCC(CS(=O)(=O)O)c1ccc(Cl)cc1 (centres undefined), the Potency is reported as “inactive”. For COc1ccc(Cn2c(N)c(C(=O)NCc3ccco3)c3nc4ccccc4nc32)cc1, the Potency was active: 20 µM. O=C1CC(=O)N(c2ccc(Cl)cc2Cl)C(=O)N1 was tested, and the Potency was inconclusive: 14.1 µM [inhibitor, partial curve]. O=C(O)CCCc1ccc(N(CCCl)CCCl)cc1 was tested, and the Potency was inconclusive: 14.1 µM [inhibitor, partial curve, poor fit] and inconclusive: 22.4 µM [inhibitor, partial curve] and inconclusive: 22.4 µM [inhibitor, partial curve, poor fit]. With O=[N+]([O-])c1ccc(N2CCNCC2)cc1NCc1ccco1 the Potency was inconclusive: 14.1 µM [inhibitor, partial curve]. For Cc1oc(/N=C/c2ccc3c(c2)OCO3)c(C#N)c1C, the Potency was inconclusive: 3.55 µM [inhibitor, full curve]. c1cc(Cc2cnc[nH]2)ccn1 was tested, and the Potency was inconclusive: 44.7 µM [inhibitor, single point]. In the case of COc1ccc(P2(=O)Nc3ccccc3N2)cc1, the Potency is reported as inconclusive: 39.8 µM [inhibitor, single point]. With CCN(CC)C(=O)c1ccc(NC(=O)CCn2nc(-c3ccc(Cl)cc3)c3ccccc3c2=O)cc1 the Potency was inconclusive: 22.4 µM [inhibitor, partial curve]. With CC(=O)C(Sc1ncnc2c1nnn2-c1ccc(F)cc1)C(=O)N(C)C (centres undefined) the Potency was active: 14.1 µM. In the case of CCCC/C(C)=C/[C@@H](NP(=O)(c1ccccc1)c1ccccc1)c1ccccc1, the Potency is reported as inconclusive: 39.8 µM [inhibitor, single point]. CC(c1ccccc1)n1cncc1C(=O)N1CCCC1=O (centres undefined) was tested, and the Potency was “inactive”. With Nc1c(C(=O)NCCN2CCOCC2)c2nc3ccccc3nc2n1Cc1ccco1 the Potency was inconclusive: 25.1 µM [inhibitor, partial curve]. O=C(N/N=C/c1c(O)n(CCc2ccccc2)c(=O)[nH]c1=O)c1ccncc1 was tested, and the Potency was inconclusive: 10 µM [inhibitor, partial curve]. For Cc1cc(-c2nc3ccccc3s2)ccc1NC(=O)c1cc(Cl)ccc1Cl, the Potency was inconclusive: 0.708 µM [inhibitor, full curve]. With O=C1NC(=S)N(C2CC2)C(=O)/C1=C/c1ccc2c(c1)CCN2CCCCl the Potency was inconclusive: 14.1 µM [inhibitor, partial curve]. Cn1c(O)c(/C=C/C=Nc2ccccc2)c(=O)n(C)c1=S was tested, and the Potency was inconclusive: 22.4 µM [inhibitor, partial curve]. With C=C1C(=O)O[C@@H]2C[C@@H](C)[C@@H]3C=CC(=O)[C@@]3(C)[C@@H](O)[C@H]12 the Potency was active: 3.55 µM. Cn1c(O)c(C(=O)c2ccccc2)c(=O)n(C)c1=O was tested, and the Potency was inconclusive: 14.1 µM [inhibitor, partial curve]. For CNC(=O)Nc1ccc(C(=O)N/N=C\C23CC[C@@H](O)CC2(O)CC[C@@H]2[C@@H]3CCC3(C)C(C4=CC(=O)OC4)CCC23O)cc1 (some centres undefined), the Potency was inconclusive: 44.7 µM [inhibitor, single point]. With CC(C)c1ccc(OCC(=O)Nc2cc(-c3nc4ncccc4o3)ccc2Cl)cc1 the Potency was inconclusive: 0.178 µM [inhibitor, full curve]. With Cc1cccc(C2CC(=O)Oc3c2c(=O)oc2ccccc32)c1 (centres undefined) the Potency was inconclusive: 15.8 µM [inhibitor, partial curve]. With COc1ccc(-c2nnn(CC(=O)OC3CCCCC3)n2)cc1OC the Potency was inconclusive: 17.8 µM [inhibitor, partial curve]. With O=C(CSCc1ccccc1)Nc1ccc2c(c1)OCO2 the Potency was inconclusive: 25.1 µM [inhibitor, single point]. In the case of COc1ccc(C(=O)NCCn2cc(SC(C)c3ccccc3)c3ccccc32)cc1OC (centres undefined), the Potency is reported as inconclusive: 10 µM [inhibitor, partial curve]. In the case of CCOC(=O)C1=C(C)OC(N)=C(C(=O)OCC)C12C(=O)Nc1ccc(Br)cc12 (centres undefined), the Potency is reported as inconclusive: 35.5 µM [inhibitor, single point]. For CC1COC2N=C(N[N+](=O)[O-])NC2O1 (centres undefined), the Potency was “inactive”. For CCN(CC)C(=O)c1ccc(NC(=O)CCn2nc(-c3ccc(C)cc3)c3ccccc3c2=O)cc1, the Potency was inconclusive: 28.2 µM [inhibitor, partial curve].

Source: PubChem BioAssay AID1460 (National Center for Advancing Translational Sciences (NCATS), 2008)
Further: nearly all actives have a fitted effect of over 55% in size.
Potency means the concentration at half of the fitted maximal effect; tags describe the fitted curve by direction and shape.
